# Experimental data as given in the supplement of paper PMC8728848.
# The list shows a part of the results.
# B1: Arath Fbox LD (Arabidopsis thaliana) (protein)
# chain: EFSVWLEKASGKRCLMLSAMNLSIIWGDNPQYWQWIPIPESRFEKVAKLRDVCWFEIRGRTNTRVLSPRTRYSAYIVFKGVDKCYGFQNVAIEAAVGVVGQEPSRRLICFSEAIRRGRRNVVKPKQREDGWMEIELGEFFNDGGIMDNDEIEMSALETKQLNRKCGLIIQGIEIRPAKILAAASFLEQKLISEEDLNSAVDHHHHHH
# Columns and labels:
# Test in all cases: glycan array binding signal (z-score within array); higher = stronger binding
# Conditions in all cases: glycan notation: IUPAC condensed, linker removed
# [1] = target: Gal(b1-3)GlcNAc(b1-6)[Gal(b1-3)]GalNAc
# Method in brief: (§1)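 Arrays were curated from the Consortium for Functional Glycomics database, 3228 in total, and kept only where the protein sequence was available. Binding is expressed as a within-array Z-score. This score was averaged across arrays of the same protein sequence at different concentrations or buffers and across linkers, and negative values can be read as non-binding.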
# [2] = target: Gal(b1-3)GlcNAc6S
# Method in brief: as §1
# [3] = target: Gal(b1-3)[Fuc(a1-4)]GlcNAc
# Method in brief: as §1
# [4] = target: Gal(b1-3)[Fuc(a1-4)]GlcNAc(b1-2)Man
# Method in brief: as §1
# [5] = target: Gal(b1-3)[Fuc(a1-4)]GlcNAc(b1-2)Man(a1-3)[Gal(b1-3)[Fuc(a1-4)]GlcNAc(b1-2)Man(a1-6)]Man(b1-4)GlcNAc(b1-4)[Fuc(a1-6)]GlcNAc
# Method in brief: as §1
# [6] = target: Gal(b1-3)[Fuc(a1-4)]GlcNAc(b1-3)Gal(b1-3)[Fuc(a1-4)]GlcNAc
# Method in brief: as §1
# [7] = target: Gal(b1-3)[Fuc(a1-4)]GlcNAc(b1-3)Gal(b1-4)[Fuc(a1-3)]GlcNAc
# Method in brief: as §1
# [8] = target: Gal(b1-3)[Fuc(a1-4)]GlcNAc(b1-6)GalNAc
# Method in brief: as §1
# [9] = target: Gal(b1-3)[GlcNAc(b1-6)]GalNAc
# Method in brief: as §1
# [10] = target: Gal(b1-3)[Neu5Ac(a2-6)]GalNAc
# Method in brief: as §1
# [11] = target: Gal(b1-3)[Neu5Ac(a2-6)]GlcNAc(b1-4)Gal(b1-4)Glc
# Method in brief: as §1
# [12] = target: Gal(b1-3)[Neu5Ac(b2-6)]GalNAc
# Method in brief: as §1
# [13] = target: Gal(b1-4)Gal
# Method in brief: as §1
# [14] = target: Gal(b1-4)GalNAc(a1-3)[Fuc(a1-2)]Gal(b1-4)GlcNAc
# Method in brief: as §1
# [15] = target: Gal(b1-4)GalNAc(b1-3)[Fuc(a1-2)]Gal(b1-4)GlcNAc
# Method in brief: as §1
# [16] = target: Gal(b1-4)Glc
# Method in brief: as §1
# [17] = target: Gal(b1-4)Glc6S
# Method in brief: as §1
# [18] = target: Gal(b1-4)GlcNAc
# Method in brief: as §1
# [19] = target: Gal(b1-4)GlcNAc(a1-6)Gal(b1-4)GlcNAc
# Method in brief: as §1
# [20] = target: Gal(b1-4)GlcNAc(b1-2)Man
# Method in brief: as §1
# [21] = target: Gal(b1-4)GlcNAc(b1-2)Man(a1-3)Man(b1-4)GlcNAc(b1-4)GlcNAc
# Method in brief: as §1
# [22] = target: Gal(b1-4)GlcNAc(b1-2)Man(a1-3)[Gal(b1-4)GlcNAc(b1-2)Man(a1-6)]Man(b1-4)GlcNAc(b1-4)GlcNAc
# Method in brief: as §1
# [23] = target: Gal(b1-4)GlcNAc(b1-2)Man(a1-3)[Gal(b1-4)GlcNAc(b1-2)Man(a1-6)]Man(b1-4)GlcNAc(b1-4)[Fuc(a1-6)]GlcNAc
# Method in brief: as §1
# [24] = target: Gal(b1-4)GlcNAc(b1-2)Man(a1-3)[Gal(b1-4)GlcNAc(b1-2)Man(a1-6)][Gal(b1-4)GlcNAc(b1-4)]Man(b1-4)GlcNAc(b1-4)[Fuc(a1-6)]GlcNAc
# Method in brief: as §1
# [25] = target: Gal(b1-4)GlcNAc(b1-2)Man(a1-3)[Gal(b1-4)GlcNAc(b1-2)Man(a1-6)][GlcNAc(b1-4)]Man(b1-4)GlcNAc(b1-4)[Fuc(a1-6)]GlcNAc
# Method in brief: as §1
# [26] = target: Gal(b1-4)GlcNAc(b1-2)Man(a1-3)[GlcNAc(b1-2)Man(a1-6)]Man(b1-4)GlcNAc(b1-4)GlcNAc
# Method in brief: as §1
# [27] = target: Gal(b1-4)GlcNAc(b1-2)Man(a1-3)[GlcNAc(b1-4)][Gal(b1-4)GlcNAc(b1-2)Man(a1-6)]Man(b1-4)GlcNAc(b1-4)GlcNAc
# Method in brief: as §1
# [28] = target: Gal(b1-4)GlcNAc(b1-2)Man(a1-3)[Man(a1-6)]Man(b1-4)GlcNAc(b1-4)GlcNAc
# Method in brief: as §1
# [29] = target: Gal(b1-4)GlcNAc(b1-2)Man(a1-6)Man(b1-4)GlcNAc(b1-4)GlcNAc
# Method in brief: as §1
# [30] = target: Gal(b1-4)GlcNAc(b1-2)Man(a1-6)[GlcNAc(b1-2)Man(a1-3)]Man(b1-4)GlcNAc(b1-4)GlcNAc
# Method in brief: as §1
# [31] = target: Gal(b1-4)GlcNAc(b1-2)Man(a1-6)[Man(a1-3)]Man(b1-4)GlcNAc(b1-4)GlcNAc
# Method in brief: as §1
# [32] = target: Gal(b1-4)GlcNAc(b1-2)[Gal(b1-4)GlcNAc(b1-4)]Man(a1-3)[Gal(b1-4)GlcNAc(b1-2)Man(a1-6)]Man(b1-4)GlcNAc(b1-4)GlcNAc
# Method in brief: as §1
# [33] = target: Gal(b1-4)GlcNAc(b1-2)[Gal(b1-4)GlcNAc(b1-4)]Man(a1-3)[Gal(b1-4)GlcNAc(b1-2)[Gal(b1-4)GlcNAc(b1-6)]Man(a1-6)]Man(b1-4)GlcNAc(b1-4)GlcNAc
# Method in brief: as §1
# [34] = target: Gal(b1-4)GlcNAc(b1-2)[Gal(b1-4)GlcNAc(b1-4)]Man(a1-3)[GlcNAc(b1-4)][Gal(b1-4)GlcNAc(b1-2)Man(a1-6)]Man(b1-4)GlcNAc(b1-4)GlcNAc
# Method in brief: as §1
# [35] = target: Gal(b1-4)GlcNAc(b1-2)[Gal(b1-4)GlcNAc(b1-4)]Man(a1-3)[GlcNAc(b1-4)][Gal(b1-4)GlcNAc(b1-2)[Gal(b1-4)GlcNAc(b1-6)]Man(a1-6)]Man(b1-4)GlcNAc(b1-4)GlcNAc
# Method in brief: as §1
# [36] = target: Gal(b1-4)GlcNAc(b1-2)[Gal(b1-4)GlcNAc(b1-6)]Man(a1-6)[Gal(b1-4)GlcNAc(b1-2)Man(a1-3)]Man(b1-4)GlcNAc(b1-4)GlcNAc
# Method in brief: as §1
# [37] = target: Gal(b1-4)GlcNAc(b1-2)[Gal(b1-4)GlcNAc(b1-6)]Man(a1-6)[Gal(b1-4)GlcNAc(b1-2)Man(a1-3)]Man(b1-4)GlcNAc(b1-4)[Fuc(a1-6)]GlcNAc
# Method in brief: as §1
# [38] = target: Gal(b1-4)GlcNAc(b1-2)[Gal(b1-4)GlcNAc(b1-6)]Man(a1-6)[GlcNAc(b1-4)][Gal(b1-4)GlcNAc(b1-2)Man(a1-3)]Man(b1-4)GlcNAc(b1-4)GlcNAc
# Method in brief: as §1
# [39] = target: Gal(b1-4)GlcNAc(b1-2)[Gal(b1-4)GlcNAc(b1-6)]Man(a1-6)[GlcNAc(b1-4)][Gal(b1-4)GlcNAc(b1-2)[Gal(b1-4)GlcNAc(b1-4)]Man(a1-3)]Man(b1-4)GlcNAc(b1-4)[Fuc(a1-6)]GlcNAc
# Method in brief: as §1
# [40] = target: Gal(b1-4)GlcNAc(b1-3)Gal(b1-3)GalNAc
# Method in brief: as §1
# [41] = target: Gal(b1-4)GlcNAc(b1-3)Gal(b1-3)GlcNAc
# Method in brief: as §1
# [42] = target: Gal(b1-4)GlcNAc(b1-3)Gal(b1-4)Glc
# Method in brief: as §1
# [43] = target: Gal(b1-4)GlcNAc(b1-3)Gal(b1-4)GlcNAc
# Method in brief: as §1
# [44] = target: Gal(b1-4)GlcNAc(b1-3)Gal(b1-4)GlcNAc(b1-2)Man(a1-3)[Gal(b1-4)GlcNAc(b1-3)Gal(b1-4)GlcNAc(b1-2)Man(a1-6)]Man(b1-4)GlcNAc(b1-4)GlcNAc
# Method in brief: as §1
# [45] = target: Gal(b1-4)GlcNAc(b1-3)Gal(b1-4)GlcNAc(b1-2)Man(a1-3)[Gal(b1-4)GlcNAc(b1-3)Gal(b1-4)GlcNAc(b1-2)Man(a1-6)]Man(b1-4)GlcNAc(b1-4)[Fuc(a1-6)]GlcNAc
# Method in brief: as §1
binder,measurement,setting,value
B1,glycan array binding signal (z-score),[1],0.663
same,glycan array binding signal (z-score),[2],-0.192
same,glycan array binding signal (z-score),[3],-0.102
same,glycan array binding signal (z-score),[4],4.02
same,glycan array binding signal (z-score),[5],2.55
same,glycan array binding signal (z-score),[6],-0.603
same,glycan array binding signal (z-score),[7],-0.31
same,glycan array binding signal (z-score),[8],-0.128
same,glycan array binding signal (z-score),[9],-0.477
same,glycan array binding signal (z-score),[10],-0.238
same,glycan array binding signal (z-score),[11],-0.085
same,glycan array binding signal (z-score),[12],-0.604
same,glycan array binding signal (z-score),[13],1.31
same,glycan array binding signal (z-score),[14],-0.644
same,glycan array binding signal (z-score),[15],-0.58
same,glycan array binding signal (z-score),[16],-0.358
same,glycan array binding signal (z-score),[17],1.18
same,glycan array binding signal (z-score),[18],-0.533
same,glycan array binding signal (z-score),[19],-0.528
same,glycan array binding signal (z-score),[20],-0.21
same,glycan array binding signal (z-score),[21],-0.442
same,glycan array binding signal (z-score),[22],-0.446
same,glycan array binding signal (z-score),[23],-0.393
same,glycan array binding signal (z-score),[24],-0.643
same,glycan array binding signal (z-score),[25],-0.517
same,glycan array binding signal (z-score),[26],-0.522
same,glycan array binding signal (z-score),[27],0.368
same,glycan array binding signal (z-score),[28],-0.327
same,glycan array binding signal (z-score),[29],-0.564
same,glycan array binding signal (z-score),[30],-0.389
same,glycan array binding signal (z-score),[31],-0.2
same,glycan array binding signal (z-score),[32],-0.356
same,glycan array binding signal (z-score),[33],-0.33
same,glycan array binding signal (z-score),[34],-0.219
same,glycan array binding signal (z-score),[35],0.792
same,glycan array binding signal (z-score),[36],-0.064
same,glycan array binding signal (z-score),[37],-0.56
same,glycan array binding signal (z-score),[38],0.488
same,glycan array binding signal (z-score),[39],0.077
same,glycan array binding signal (z-score),[40],0.006
same,glycan array binding signal (z-score),[41],-0.488
same,glycan array binding signal (z-score),[42],0.088
same,glycan array binding signal (z-score),[43],-0.405
same,glycan array binding signal (z-score),[44],0.039
same,glycan array binding signal (z-score),[45],-0.519
